Some of the results follow.

For this test, the target named is T1, MBP-FoxP1dN (Mus musculus, UniProt P58462 326-579).
T1 sequence: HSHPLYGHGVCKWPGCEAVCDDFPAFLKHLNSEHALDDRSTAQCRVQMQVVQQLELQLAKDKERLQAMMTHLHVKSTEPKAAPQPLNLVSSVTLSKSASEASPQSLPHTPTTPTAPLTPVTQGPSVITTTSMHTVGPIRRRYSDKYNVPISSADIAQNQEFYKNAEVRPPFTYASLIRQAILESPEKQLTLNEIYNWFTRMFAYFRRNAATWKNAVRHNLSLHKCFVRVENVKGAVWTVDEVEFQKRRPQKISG
Nature of the test: PD-seq (MBP pull-down with sequencing); 20 mM Tris-HCl pH 7.5, 100 mM NaCl, 1.5 mM MgCl2, 0.4 uM protein, 0.1 uM dsDNA library, 30 min, room temperature, amylose pull-down; high values mean tight binding. The conditions noted are these: protein: recombinant; tags: His6-MBP; chain copies: 2; dsDNA, one strand shown. The gist of the method:
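The N-terminus-lacking fragment of mouse FoxP3 or FoxP1 carried a His6-MBP tag and was expressed in E. coli. At 0.4 µM it was incubated with 0.1 µM Klenow-filled degenerate double-stranded DNA library for 30 min at room temperature in Tris pH 7.5 buffer with NaCl and MgCl2, and complexes were caught on amylose resin, washed three times, released with proteinase K, PCR-barcoded and Illumina-sequenced. Binding is reads-per-million enrichment of pull-down over input with replicates pooled.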
Consider “GATGATTGTTCTCCCAGCTGATGAATTGGACGTGTCGAGTAAACAAATTTTCCTAATCTTTCTGTTCAAGCGCCATCTAC”, for which the binding signal was 0.855 RPM ratio (pull-down/input).

In the case of “GATGATTGTTCTCCCAGCTGATGAATTATCGACATCGAGTAAACAAATTTTCCTAATCTTTCTGTTCAAGCGCCATCTAC”, the binding signal was 1.03 RPM ratio (pull-down/input).

Regarding “GATGATTGTTCTCCCAGCTGATGAATTGATGATGTCGAGTAAACAAATTTTCCTAATCTTTCTGTTCAAGCGCCATCTAC”, the binding signal was 1.39 RPM ratio (pull-down/input).

Consider “GATGATTGTTCTCCCAGCTGATGAATTACCGGTGTCGAGTAAACAAATTTTCCTAATCTTTCTGTTCAAGCGCCATCTAC”, for which the binding signal is 0.975 RPM ratio (pull-down/input).

For “GATGATTGTTCTCCCAGCTGATGAATTACTAAAATCGAGTAAACAAATTTTCCTAATCTTTCTGTTCAAGCGCCATCTAC”, the binding signal was 1.34 RPM ratio (pull-down/input).

As for “GATGATTGTTCTCCCAGCTGATGAATTTTCCAGGTCGAGTAAACAAATTTTCCTAATCTTTCTGTTCAAGCGCCATCTAC”, the binding signal is 0.807 RPM ratio (pull-down/input).

As to “GATGATTGTTCTCCCAGCTGATGAATTTAGCTTCTCGAGTAAACAAATTTTCCTAATCTTTCTGTTCAAGCGCCATCTAC”, the binding signal is 0.934 RPM ratio (pull-down/input).

In the case of “GATGATTGTTCTCCCAGCTGATGAATTTTAGCGTTCGAGTAAACAAATTTTCCTAATCTTTCTGTTCAAGCGCCATCTAC”, the binding signal is 0.953 RPM ratio (pull-down/input).

Consider “GATGATTGTTCTCCCAGCTGATGAATTCTATCCTTCGAGTAAACAAATTTTCCTAATCTTTCTGTTCAAGCGCCATCTAC”, for which the binding signal is 0.86 RPM ratio (pull-down/input).

As to “GATGATTGTTCTCCCAGCTGATGAATTTATTCCTTCGAGTAAACAAATTTTCCTAATCTTTCTGTTCAAGCGCCATCTAC”, the binding signal was 1.08 RPM ratio (pull-down/input).

In the case of “GATGATTGTTCTCCCAGCTGATGAATTGCCGATCTCGAGTAAACAAATTTTCCTAATCTTTCTGTTCAAGCGCCATCTAC”, the binding signal was 0.861 RPM ratio (pull-down/input).

As to “GATGATTGTTCTCCCAGCTGATGAATTGGTATTATCGAGTAAACAAATTTTCCTAATCTTTCTGTTCAAGCGCCATCTAC”, the binding signal was 1.9 RPM ratio (pull-down/input).

As for “GATGATTGTTCTCCCAGCTGATGAATTCACAAGGTCGAGTAAACAAATTTTCCTAATCTTTCTGTTCAAGCGCCATCTAC”, the binding signal is 0.82 RPM ratio (pull-down/input).

On to “GATGATTGTTCTCCCAGCTGATGAATTTACCATTTCGAGTAAACAAATTTTCCTAATCTTTCTGTTCAAGCGCCATCTAC”, for which the binding signal is 1.21 RPM ratio (pull-down/input).

Regarding “GATGATTGTTCTCCCAGCTGATGAATTTGATAGGTCGAGTAAACAAATTTTCCTAATCTTTCTGTTCAAGCGCCATCTAC”, the binding signal is 0.81 RPM ratio (pull-down/input).

In the case of “GATGATTGTTCTCCCAGCTGATGAATTACGCTGTTCGAGTAAACAAATTTTCCTAATCTTTCTGTTCAAGCGCCATCTAC”, the binding signal was 1.03 RPM ratio (pull-down/input).

As to “GATGATTGTTCTCCCAGCTGATGAATTACCCAATTCGAGTAAACAAATTTTCCTAATCTTTCTGTTCAAGCGCCATCTAC”, the binding signal was 1.04 RPM ratio (pull-down/input).

Consider “GATGATTGTTCTCCCAGCTGATGAATTTACGATTTCGAGTAAACAAATTTTCCTAATCTTTCTGTTCAAGCGCCATCTAC”, for which the binding signal is 1.37 RPM ratio (pull-down/input).

Consider “GATGATTGTTCTCCCAGCTGATGAATTGCCTTAGTCGAGTAAACAAATTTTCCTAATCTTTCTGTTCAAGCGCCATCTAC”, for which the binding signal is 0.943 RPM ratio (pull-down/input).

As to “GATGATTGTTCTCCCAGCTGATGAATTTTAAGACTCGAGTAAACAAATTTTCCTAATCTTTCTGTTCAAGCGCCATCTAC”, the binding signal is 0.904 RPM ratio (pull-down/input).

“GATGATTGTTCTCCCAGCTGATGAATTGTACACGTCGAGTAAACAAATTTTCCTAATCTTTCTGTTCAAGCGCCATCTAC”: the binding signal is 1.15 RPM ratio (pull-down/input).

Take “GATGATTGTTCTCCCAGCTGATGAATTGCATTTCTCGAGTAAACAAATTTTCCTAATCTTTCTGTTCAAGCGCCATCTAC”: the binding signal was 1.43 RPM ratio (pull-down/input).

As to “GATGATTGTTCTCCCAGCTGATGAATTGTGGAGGTCGAGTAAACAAATTTTCCTAATCTTTCTGTTCAAGCGCCATCTAC”, the binding signal was 0.81 RPM ratio (pull-down/input).

In the case of “GATGATTGTTCTCCCAGCTGATGAATTGTCGGAGTCGAGTAAACAAATTTTCCTAATCTTTCTGTTCAAGCGCCATCTAC”, the binding signal is 0.866 RPM ratio (pull-down/input).

For the sequence “GATGATTGTTCTCCCAGCTGATGAATTGGAGCTTTCGAGTAAACAAATTTTCCTAATCTTTCTGTTCAAGCGCCATCTAC”, the binding signal is 0.893 RPM ratio (pull-down/input).

“GATGATTGTTCTCCCAGCTGATGAATTCTATGGTTCGAGTAAACAAATTTTCCTAATCTTTCTGTTCAAGCGCCATCTAC”: the binding signal was 0.91 RPM ratio (pull-down/input).

Regarding “GATGATTGTTCTCCCAGCTGATGAATTCTACGTCTCGAGTAAACAAATTTTCCTAATCTTTCTGTTCAAGCGCCATCTAC”, the binding signal was 0.821 RPM ratio (pull-down/input).

As to “GATGATTGTTCTCCCAGCTGATGAATTTATCGCTTCGAGTAAACAAATTTTCCTAATCTTTCTGTTCAAGCGCCATCTAC”, the binding signal was 1.1 RPM ratio (pull-down/input).

“GATGATTGTTCTCCCAGCTGATGAATTCGATGCGTCGAGTAAACAAATTTTCCTAATCTTTCTGTTCAAGCGCCATCTAC”: the binding signal was 1.12 RPM ratio (pull-down/input).

In the case of “GATGATTGTTCTCCCAGCTGATGAATTTTTACGCTCGAGTAAACAAATTTTCCTAATCTTTCTGTTCAAGCGCCATCTAC”, the binding signal is 0.907 RPM ratio (pull-down/input).

As for “GATGATTGTTCTCCCAGCTGATGAATTCTAGGAATCGAGTAAACAAATTTTCCTAATCTTTCTGTTCAAGCGCCATCTAC”, the binding signal was 0.962 RPM ratio (pull-down/input).

The record behind these values is publication PMC12820563, “FoxP3 forms a head-to-head dimer in vivo and stabilizes its multimerization on adjacent microsatellites”.
